# The whole screen tested about 52,000 compounds, of which about 1,700 (3.3%) were called active. Rule as the data show it: active = survival mostly below about 52% (no sharp cut-off); inactive = mostly above about 56%. Some of the results follow.
# System: Wild type
# Assay: growth inhibition of S. aureus wild type versus tarO mutant, primary screen, teichoic acid synthesis inhibitors, RN4220, OD600 (AID 463173)
# Conditions: S. aureus RN4220 wild type/DeltatarO growth, OD600, 18 h, stronger effect = lower value, screened at 18.75 µg/mL (by protocol)
row,SMILES,survival
1,CCCc1cnc2c(c1SCC(=O)N1CCC(C)CC1)c(=O)n(C)c(=O)n2C,inactive: 80%
2,O=C(Nc1nc2n(n1)C(c1ccc(F)cc1)C=C(c1ccccc1)N2)c1ccc(Cl)cc1 (centres undefined),inactive: 52%
3,O=C(CC(C(=O)O)C1CCCO1)Nc1ccc(F)cc1 (centres undefined),inactive: 88%
4,Cc1ccc(NC(=O)C(Cc2ccccc2)NS(=O)(=O)c2ccc3c(c2)oc(=O)n3C)cc1F (centres undefined),inactive: 104%
5,CCN1CCN(C(=O)c2ccc(S(=O)(=O)N(CC)CC)cc2)CC1,inactive: 106%
6,CCCCNC(=O)C1CCC(Cn2c(=O)c3sccc3n(CC(=O)N3CCCC3)c2=O)CC1 (centres undefined),inactive: 121%
7,NS(=O)(=O)c1ccc(NC(=O)C2CCCO2)cc1 (centres undefined),inactive: 90%
8,Cc1cc(C)cc(NC(=O)C(=O)NCC(c2cccnc2)N2CCc3ccccc3C2)c1 (centres undefined),inactive: 85%
9,Clc1cccc(-n2ncc3c(N4CCC(Cc5ccccc5)CC4)ncnc32)c1,inactive: 88%
10,COC(=O)c1cccnc1-n1c(=O)c2cccnc2n(CC(=O)Nc2ccccc2F)c1=O,inactive: 84%
11,CCc1ccccc1NC(=O)c1sc2nc3c(cc2c1N)CN(Cc1ccccc1)CC3,inactive: 78%
12,O=C(CSc1nncn2c1cc1sccc12)Nc1ccc(Br)cc1F,inactive: 57%
13,CCOC(=O)c1c(C)oc2nc(C)nc(NCc3ccc(OC)cc3OC)c12,inactive: 89%
14,O=C(Nc1cc(C(F)(F)F)ccc1Cl)c1nc2ccccc2nc1N1CCCCC1,inactive: 80%
15,O=C(Cn1c(=O)nc(-c2ccccc2)c2ccccc21)NCc1ccc(Cl)cc1,inactive: 72%
16,COc1ccc(Cl)cc1C(=O)N1CCCC1,inactive: 99%
17,CCc1ccc(NC(=O)CCn2nc(C)c(S(=O)(=O)N3CCCCC3)c2C)cc1,inactive: 121%
18,COc1ccc2c(C)cc(SCC(=O)Nc3nsc(-c4ccccc4C)n3)nc2c1,active: 1%
19,CCOC(=O)c1ccccc1NC(=O)Cn1c(=O)n(-c2cccc(C)c2)c(=O)c2c1c1cc(C)ccc1n2C,inactive: 59%
20,CCOc1ccc(Cn2c(CNS(=O)(=O)c3ccc(Cl)s3)nc3cccnc32)cc1,inactive: 99%
21,COc1cccc(N2CCN(S(=O)(=O)c3ccc(-n4cnnn4)cc3)CC2)c1,inactive: 124%
22,CCOc1ccccc1NC(=O)C1CCN(S(=O)(=O)c2ccc3c(c2)CC(C)N3C(C)=O)CC1 (centres undefined),inactive: 87%
23,O=C(C1CCCCC1)N(Cc1nc2sc3c(c2c(=O)[nH]1)CCCC3)Cc1cccs1,inactive: 111%

row,SMILES,survival
1,CC(C)(C#N)Nn1cnnc1,inactive: 112%
2,COc1cc(C2C(C(=O)Nc3ccccc3C)=C(C)Nc3ncnn32)ccc1OCC(N)=O (centres undefined),inactive: 85%
3,O=C(NCC(c1ccc2c(c1)OCO2)N1CCOCC1)c1cccc(Cl)c1 (centres undefined),inactive: 91%
4,Nc1ccc(N2CCN(c3ncc(C(F)(F)F)cc3Cl)CC2)c(C(F)(F)F)c1,active: -14%
5,CCN(CC)C(=O)CSc1nc(-c2ccco2)cc(C(F)(F)F)c1C#N,inactive: 101%
6,O=C(NCc1ccc(Cl)cc1)C(=O)NCC(c1cccs1)S(=O)(=O)c1cccs1 (centres undefined),inactive: 72%
7,COCC(=O)NCc1nc2cccnc2n1Cc1ccc(F)cc1,inactive: 75%
8,N#CSc1cnc(NC2CCCCC2)s1,active: 2%
9,Cc1ccc(NC(=O)CSc2ccc(-c3cccs3)nn2)cc1Cl,inactive: 109%
10,CN(c1ccccc1)S(=O)(=O)c1ccc(NC(=O)c2cc(=O)c3ccccc3o2)cc1,inactive: 75%
11,O=C(CCn1cnnn1)Nc1ccc(F)cc1,inactive: 71%
12,Cc1oc(C)c2c(=O)cc(-c3ccc4c(c3)OCO4)cc(OC(=O)c3cccc(Br)c3)c12,inactive: 113%
13,COCc1cc(C)nc(SCC(N)=O)c1C#N,inactive: 99%
14,COc1ccc(Nc2cc(C(=O)NCCCN3CCN(c4ccc(OC)cc4)CC3)c3ccccc3n2)cc1,inactive: 80%
15,CC(C)(C)C(=O)NC1CCN(C(=O)NCc2ccccc2)CC1,inactive: 102%
16,OCc1nc2ccc(-c3ccc4nc(CO)[nH]c4c3)cc2[nH]1,inactive: 99%
17,Cc1ccc(Cn2c(CNS(=O)(=O)c3ccc(F)c(Cl)c3)nc3cccnc32)cc1,inactive: 134%
18,COc1ccc(-n2ncc(C(=O)NCCc3ccsc3)c2C2CCN(C(=O)OC(C)(C)C)CC2)cc1,inactive: 83%
19,COc1ccccc1C(=O)Nc1ccc(N2CCN(S(C)(=O)=O)CC2)cc1,inactive: 103%
20,Cc1ccccc1CCNC(=O)c1ccc2c(c1)nc1n2CCC(C)C1 (centres undefined),inactive: 72%
21,COc1ccccc1C1Nc2ccccc2-n2c(-c3ccccc3)c3c(=O)n(C)c(=O)n(C)c3c21 (centres undefined),inactive: 65%
22,CC(=O)Nc1ccc2nc3c(=O)[nH]c(=O)[nH]c3nc2c1,inactive: 90%
23,Cc1noc(-c2ccc(N3CCCCC3)c([N+](=O)[O-])c2)n1,inactive: 78%

row,SMILES,survival
1,CCCN1CC=C2C(C#N)=C(N)C(C#N)(C#N)C(c3ccc(F)cc3F)C2C1 (centres undefined),inactive: 104%
2,Cc1cc(NC(=O)c2cccc(Cl)c2)ccc1-c1cc2ccccc2oc1=O,inactive: 89%
3,CCCCc1nn2c(=O)cc(COC(=O)c3ccc(NC(=O)c4ccccc4C)cc3)nc2s1,inactive: 93%
4,Cc1cc(F)ccc1NS(=O)(=O)c1ccc(-n2cccn2)cc1,inactive: 75%
5,Cc1ccc(CNS(=O)(=O)c2ccc3[nH]c4c(c3c2)CCCC4)cc1,inactive: 82%
6,COc1ccc(-c2noc(-c3ccc(N4CCN(c5ccccc5)CC4)c([N+](=O)[O-])c3)n2)cc1OC,inactive: 90%
7,CCOC(=O)C1(C)C=C(Nc2cccc(C(=O)O)c2)C(=O)N1c1cccc(C(=O)O)c1 (centres undefined),inactive: 89%
8,CCOC(=O)c1sc2sc(C(=O)OCC)c(CN(CC)CC)c2c1CN(CC)CC,inactive: 94%
9,Cc1ccc(CCNC(=O)c2ccc3c(c2)nc2n3CCC(C)C2)cc1 (centres undefined),inactive: 71%
10,COc1cc2c(cc1OC)C(COc1ccccc1OC)N(C(=O)COc1ccc(Cl)cc1)CC2 (centres undefined),inactive: 60%
11,O=C(C1CCN(c2ncnc3c2nc2n3CCCCC2)CC1)N1CCN(c2cccc(Cl)c2)CC1,inactive: 57%
12,COc1ccc(OC)c(CNC(=O)Cc2ccc(NC(=O)N3CCSc4ncccc43)cc2)c1,inactive: 64%
13,O=C1CS(=O)(=O)C2(C(=O)N(Cc3ccccc3)c3ccccc32)N1c1ccccc1 (centres undefined),inactive: 132%
14,NC(=O)c1sc2nc3c(cc2c1N)CCCCC3,inactive: 105%
15,Cc1cc(C)n(CCc2nc3c4ccccc4nc(N4CCN(c5ccccc5)CC4)n3n2)n1,inactive: 83%
16,CC(=O)NC1(c2ccccc2)CCN(CC(=O)Nc2c(C)n[nH]c2C)CC1,inactive: 112%
17,Cc1ccc(OC(=O)CSc2nnc(-c3ccco3)n2-c2ccccc2)cc1,inactive: 98%
18,COc1cccc(CNC(=O)C2CCCCN2S(=O)(=O)c2ccc(F)cc2)c1 (centres undefined),inactive: 22%
19,COc1ccc(/C=C/C(=O)Nc2ccc3nc4c(c(Nc5ccccc5OC)c3c2)CCCC4)cc1,inactive: 93%
20,O=C(c1ccc2c(c1)N(Cc1cccc(F)c1)C(=O)c1ccccc1S2)N1CCOCC1,inactive: 68%
21,Cc1ccc(S(=O)(=O)c2nnn3c2nc(N2CCN(c4ccccc4F)CC2)c2cc(Cl)ccc23)cc1C,inactive: 89%
22,Cc1ccc(S(=O)(=O)c2nnn3c2nc(N2CCCC2)c2sccc23)cc1C,inactive: 83%
23,Cc1c(C(=O)Nc2ccccc2)sc2ncn(CC(=O)N3CCOCC3)c(=O)c12,inactive: 99%

row,SMILES,survival
1,CC(=O)N1c2c(cc(Br)cc2S(=O)(=O)N2CCN(c3cc(C)ccc3C)CC2)CC1C (centres undefined),inactive: 72%
2,Cc1ccccc1CN1C(=O)c2ccccc2S(=O)c2ccc(C(=O)NC3CCC(C)CC3)cc21 (centres undefined),inactive: 75%
3,CCCCSc1nnc(-c2ccc3[nH]c(C)c(C)c3c2)o1,inactive: 111%
4,CCc1ccc(NC(=O)c2sc3nc(C)c(Cl)c(C)c3c2NC(=O)c2ccccc2OC)cc1,inactive: 127%
5,CC1=C(C#N)C(NC(=O)c2ccccc2Cl)(C(F)(F)F)C(=O)N1 (centres undefined),inactive: 139%
6,COc1ccc(OC)c(NC(=O)C2=C(C)C(=O)OC23CCCCCC3)c1,inactive: 129%
7,CCN(CC)CCCNC(=O)c1cnc(SC)nc1-c1ccccc1,inactive: 69%
8,CCN(CC)CCCNC(=O)c1cn(C)c2ccc(S(=O)(=O)N(C)C3CCCCC3)cc2c1=O,inactive: 126%
9,Cc1ccc(CN(C(=O)COc2ccc([N+](=O)[O-])cc2)c2ccccn2)cc1,inactive: 79%
10,COc1cccc(-c2ncnn2-c2sc3c(c2C#N)CCCCC3)c1OC,inactive: 72%
11,CCN(C(=O)CSc1nc2ncccc2[nH]1)c1ccc(C(C)C)cc1,inactive: 69%
12,O=C(COc1ccc(Cl)cc1)Nc1nnc(S(=O)(=O)N2CCc3ccccc32)s1,active: 12%
13,CCOCCc1nn2c(=O)cc(COC(=O)CNC(=O)c3cccc(C)c3)nc2s1,inactive: 84%
14,Cc1ccc2c(=O)cc(C(=O)Nc3nc4ccc(Cl)cc4s3)oc2c1C,inactive: 77%
15,CN1CCN(C(=O)c2ccc(-c3ccccc3)cc2)CC1,inactive: 110%
16,Cc1nn(CC(=O)N2CCC(C)CC2)c(=O)c2cc3sccc3n12,inactive: 80%
17,CCOc1ccc(CCNC(=O)c2cn(C)c3ccc(S(=O)(=O)N4CCCCCC4)cc3c2=O)cc1OCC,inactive: 77%
18,CCOc1ccc(NC(=O)c2cnc(N3CCCC3)nc2C)cc1,inactive: 68%
19,COc1ccc(CNc2nc3c(-c4cccc(C)c4)nnn3c3ccccc23)cc1,inactive: 90%
20,CCOC(=O)c1c(C)[nH]c(C)c1S(=O)(=O)N(C)CC(=O)N1CCN(c2ccccc2)CC1,inactive: 65%
